Among the data in patent US10669314B2, “Polypeptide” (Affibody AB, priority 2014, dated 2020) are Tm, koff and kon values, retold here.

As a reminder, the koff is the first-order rate constant of dissociation. High values mean a short-lived complex, low ones a long-lived complex. By kon is commonly meant the second-order rate constant of association.

First the molecules themselves.
B1: His6-Z06814: primary IL-6 binding Z variant SEQ ID NO:1512, MGSSHHHHHHLQ-[Z]-VD (protein)
chain: MGSSHHHHHHLQVDAKYAKEEQRAWREIHLLPNLTIEQMAAFIWKLLDDPSQSSELLSEAKKLNDSQAPKVD
B2: His6-Z06792: primary IL-6 binding Z variant SEQ ID NO:1507, MGSSHHHHHHLQ-[Z]-VD (protein)
chain: B1 chain with Q22R, R23D, R26H, H29Q, L30I, E37T, W44S, L47F
B3: His6-Z06809: primary IL-6 binding Z variant SEQ ID NO:1511, MGSSHHHHHHLQ-[Z]-VD (protein)
chain: B1 chain with Q22R, R23D, L30A, I36V, E37D, M39L, A40V, W44T, L47F
B4: His6-Z06779: primary IL-6 binding Z variant SEQ ID NO:1504, MGSSHHHHHHLQ-[Z]-VD (protein)
chain: B1 chain with Q22R, R23S, R26F, L30T, I36V, E37Q, M39I, L47Y
B5: His6-Z06789: primary IL-6 binding Z variant SEQ ID NO:1505, MGSSHHHHHHLQ-[Z]-VD (protein)
chain: B1 chain with Q22R, R23Q, R26W, L30S, I36V, E37D, W44V, L47M
B6: His6-Z06799: primary IL-6 binding Z variant SEQ ID NO:1508, MGSSHHHHHHLQ-[Z]-VD (protein)
chain: B1 chain with R26T, L30V, I36V, E37Q, W44T, L47F
B7: His6-Z06829: primary IL-6 binding Z variant SEQ ID NO:1513, MGSSHHHHHHLQ-[Z]-VD (protein)
chain: B1 chain with R26T, L30V, I36V, E37S, A40S, W44S, L47F
B8: His6-Z14862: Z14862 (SEQ ID NO:10) as MGSSHHHHHHLQ-[Z]-VD (protein)
chain: B1 chain with Q22A, R23A, E37D, W44T, L47F
B9: His6-Z14630: Z14630 (SEQ ID NO:6) as MGSSHHHHHHLQ-[Z]-VD (protein)
chain: B1 chain with Q22K, R23F, R26W, L30K, I36V, E37D, M39V, W44T, L47F
B10: His6-Z14700: Z14700 (SEQ ID NO:8) as MGSSHHHHHHLQ-[Z]-VD (protein)
chain: B1 chain with Q22R, R23H, R26F, L30K, I36V, E37D, W44T, L47F
B11: His6-Z14861: Z14861 (SEQ ID NO:4) as MGSSHHHHHHLQ-[Z]-VD (protein)
chain: B1 chain with Q22R, R23K, R26I, L30N, E37D, W44T, L47F
B12: His6-Z15036: Z15036 (SEQ ID NO:11) as MGSSHHHHHHLQ-[Z]-VD (protein)
chain: B1 chain with Q22Y, R23E, R26F, L30A, I36V, W44T, L47F
B13: His6-Z11632: Z11632 (SEQ ID NO:7) as MGSSHHHHHHLQ-[Z]-VD (protein)
chain: B1 chain with Q22R, R23E, R26F, L30T, I36V, E37S, W44S, L47F
B14: His6-Z15015: Z15015 (SEQ ID NO:2) as MGSSHHHHHHLQ-[Z]-VD (protein)
chain: B1 chain with Q22R, R23D, R26W, L30A, I36V, W44T, L47F
B15: His6-Z15110: Z15110 (SEQ ID NO:12) as MGSSHHHHHHLQ-[Z]-VD (protein)
chain: B1 chain with Q22R, R26T, L30S, E37D, W44T, L47F
B16: His6-Z15142: Z15142 (SEQ ID NO:14) as MGSSHHHHHHLQ-[Z]-VD (protein)
chain: B1 chain with Q22R, R23M, R26Y, L30S, I36V, E37D, W44T, L47F
B17: His6-Z14712: Z14712 (SEQ ID NO:9) as MGSSHHHHHHLQ-[Z]-VD (protein)
chain: B1 chain with Q22Y, R23L, R26N, L30K, I36V, E37D, W44T, L47F
B18: His6-Z14984: Z14984 (SEQ ID NO:5) as MGSSHHHHHHLQ-[Z]-VD (protein)
chain: B1 chain with Q22K, R23Q, E37D, W44T, L47F
B19: His6-Z15122: Z15122 (SEQ ID NO:3) as MGSSHHHHHHLQ-[Z]-VD (protein)
chain: B1 chain with Q22R, R23H, R26Y, E37D, W44S, L47F
B20: His6-Z14976: Z14976 (SEQ ID NO:1) as MGSSHHHHHHLQ-[Z]-VD (protein)
chain: B1 chain with Q22R, R23K, R26Y, I36V, W44T, L47F

Positions count from the first letter of the chain named.

System in one data set: not listed separately
As to the kind of experiment: CD variable temperature measurement, melting temperature. In kind it is physicochemical. The note with it: Example 2; His6-tagged, 0.5 mg/ml in PBS, 221 nm, 20 to 90° C. As for the experimental part:
A subset of the purified His6-tagged Z variants was diluted to 0.5 mg/ml in PBS. For each diluted Z variant, a CD spectrum at 250-195 nm was obtained at 20° C. In addition, a variable temperature measurement (VTM) was performed to determine the melting temperature (Tm). In the VTM, the absorbance was measured at 221 nm while the temperature was raised from 20 to 90° C., with a temperature slope of 5° C./min. The CD measurements were performed on a Jasco J-810 spectropolarimeter (Jasco Scandinavia AB) using a cell with an optical path-length of 1 mm.
CD analysis was performed as described in Example 2 using Z variants purified under native conditions.
In the case of B1, the Tm was determined as 49 °C. On the same count and under the same terms, next, B2: 48 °C; B3: 51 °C.

On to B4, for which the Tm worked out at 51 °C. Same read-out and setting: then B5, with 52 °C; and B6, with 44 °C.

In the case of B7, the Tm was 40 °C.

The same data set, now with this note: Example 7; His6-tagged matured Z variants purified under native conditions.
For B8, the Tm worked out at 53 °C. On the same count and under the same terms, then B9, with 57 °C; and B10, with 53 °C; and B11, with 48 °C. On the same count and under the same terms, then B12, with 59 °C. Still for that read-out and setting: next, B13: 51 °C; B14: 56 °C. With B15, the Tm amounted to 50 °C. For the molecule B16, the Tm is 53 °C. For B17, the Tm is 55 °C.

For another data set, the target named is human IL-6 (Homo sapiens, UniProt P05231). Kind of data set: ProteOn kinetic analysis (SPR). In kind it is binding. The note with it: Z variant immobilized, hIL-6 analyte, 1:1 model; purified under denatured conditions. As for the experimental part: Kinetic constants (kon and koff) and affinities (KD) for human IL-6 were determined for 6 His6-tagged Z variants purified under denatured conditions. The IL-6 binding variants Z06814 (SEQ ID NO:1512), Z14861 (SEQ ID NO:4), Z014976 (SEQ ID NO:1), Z14984 (SEQ ID NO:5), Z15015 (SEQ ID NO:2), and Z15122 (SEQ ID NO:3) were diluted to 5 μg/ml in 10 mM NaAc buffer, pH 4.5, and immobilized separately on GLC chip (Bio-Rad, cat. no. 176-5011). The immobilization was performed using amine coupling chemistry according to the manufacturer's recommendations and PBST 0.05% was used as running buffer. PBST 0.05% was also used as running buffer in the kinetic experiment using a flow rate was 60 μl/min. The analyte hIL-6 was diluted in the PBST 0.05% running buffer to final concentrations of 50 nM, 12.5 nM, 3.1 nM, 0.78 nM, 0.19 nM and 0 nM and injected in triplicate for 3 min, followed by dissociation in running buffer for 90 min. After dissociation, the surfaces were regenerated with HCl supplemented with 0.05% Tween 20. Kinetic constants were calculated from the sensorgrams using a 1:1 model in Bio-Rad manager Software (Bio-Rad).
human IL-6, sequence (P05231 29-212): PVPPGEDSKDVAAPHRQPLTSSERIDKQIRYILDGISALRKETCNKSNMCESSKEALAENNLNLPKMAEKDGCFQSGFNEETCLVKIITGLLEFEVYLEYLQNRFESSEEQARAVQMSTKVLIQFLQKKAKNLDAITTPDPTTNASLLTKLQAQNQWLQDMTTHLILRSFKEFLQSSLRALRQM
As to B1, the koff was 8.8e-05 s⁻¹ and the on-rate constant (kon) was 430000 M⁻¹ s⁻¹. The matching figures for B11: 6.3e-05 s⁻¹ and 360000 M⁻¹ s⁻¹. In the same order, the values of B18 are 7.4e-05 s⁻¹ and 300000 M⁻¹ s⁻¹.

As for B14, the koff was 7.2e-05 s⁻¹ and the kon worked out at 430000 M⁻¹ s⁻¹. The matching figures for B19: 3.9e-05 s⁻¹ and 310000 M⁻¹ s⁻¹.

Take B20: the koff stood at 2.7e-05 s⁻¹ and the association rate constant (kon) turned out to be 310000 M⁻¹ s⁻¹.
